Data on 56 compounds can be found in publication PMC4336329 (PLoS ONE, 2015).

Screen size: about 310,000 compounds; about 14,000 (4.5%) showed an effect of 50% or more. Effects have a minus sign here. The list shows a part of the results.
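Also: peak tail current of the secondary pulse compared with the same well before compound.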

The target of the test is human ether-à-go-go-related gene (hERG) potassium channel (human, UniProt Q12809). The experiment in a line: primary screen, population patch clamp on CHO cells stably expressing hERG.
human ether-à-go-go-related gene (hERG) potassium channel, sequence (Q12809 whole entry, looked up): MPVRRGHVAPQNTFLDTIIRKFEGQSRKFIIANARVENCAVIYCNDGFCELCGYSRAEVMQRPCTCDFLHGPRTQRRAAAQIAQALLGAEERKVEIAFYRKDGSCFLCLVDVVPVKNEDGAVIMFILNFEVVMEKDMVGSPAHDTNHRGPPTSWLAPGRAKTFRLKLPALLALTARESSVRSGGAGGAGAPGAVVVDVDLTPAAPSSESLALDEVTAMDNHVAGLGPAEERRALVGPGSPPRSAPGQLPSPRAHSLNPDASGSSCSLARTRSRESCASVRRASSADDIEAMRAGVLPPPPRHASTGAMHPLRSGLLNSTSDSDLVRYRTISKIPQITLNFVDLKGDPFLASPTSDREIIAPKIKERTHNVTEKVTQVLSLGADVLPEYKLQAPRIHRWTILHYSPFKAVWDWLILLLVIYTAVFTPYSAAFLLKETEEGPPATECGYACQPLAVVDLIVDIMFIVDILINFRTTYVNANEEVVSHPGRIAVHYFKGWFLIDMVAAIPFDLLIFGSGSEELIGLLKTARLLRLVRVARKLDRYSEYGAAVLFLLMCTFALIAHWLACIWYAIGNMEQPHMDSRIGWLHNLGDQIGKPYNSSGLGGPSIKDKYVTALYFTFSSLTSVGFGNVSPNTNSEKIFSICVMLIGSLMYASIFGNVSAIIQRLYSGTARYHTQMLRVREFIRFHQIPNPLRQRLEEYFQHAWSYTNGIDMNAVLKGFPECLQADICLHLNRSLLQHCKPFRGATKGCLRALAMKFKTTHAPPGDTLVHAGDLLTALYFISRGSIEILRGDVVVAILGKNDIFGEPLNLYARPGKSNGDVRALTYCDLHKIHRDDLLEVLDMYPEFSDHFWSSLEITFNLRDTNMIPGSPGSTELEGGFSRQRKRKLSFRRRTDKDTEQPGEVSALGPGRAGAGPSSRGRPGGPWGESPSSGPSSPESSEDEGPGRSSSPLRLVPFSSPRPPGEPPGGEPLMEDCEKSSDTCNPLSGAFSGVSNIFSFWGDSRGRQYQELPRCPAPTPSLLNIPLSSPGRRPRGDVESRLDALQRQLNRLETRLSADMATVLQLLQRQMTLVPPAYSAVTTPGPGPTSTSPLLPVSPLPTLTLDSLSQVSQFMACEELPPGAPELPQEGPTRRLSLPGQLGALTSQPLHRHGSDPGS
As to `O=C(C1=C[C@H](c2coc3ccccc3c2=O)C[C@H](OCCCCO)O1)N1CCN(Cc2ccc3c(c2)OCO3)CC1`, the “hERG current change (%, negative = inhibition) at 10uM” value is on record as -64.4%.

For `COCc1cc(C)nc(NCCc2ccccc2)c1C#N`, the “hERG current change (%, negative = inhibition) at 10uM” value is -7.77%.

Take `CC(=O)Nc1ccc(S(=O)(=O)NCc2ccc(C(=O)NC(C)c3ccccc3)cc2)cc1` (centres unmarked): the “hERG current change (%, negative = inhibition) at 10uM” value is given as -12.2%.

For `O=C(NC(=S)N1C[C@H]2C[C@H](C1)c1cccc(=O)n1C2)c1ccc(Cl)cc1`, the “hERG current change (%, negative = inhibition) at 10uM” value is -8.28%.

On to `O=C(N/N=C/c1cccnc1)c1[nH]ncc1Br`, for which the “hERG current change (%, negative = inhibition) at 10uM” value is given as 39.4%.

With `CCN(C(=O)N(CC)c1ccccc1)c1ccccc1`, the “hERG current change (%, negative = inhibition) at 10uM” value worked out at 13.1%.

With `CCOc1ccc(-c2nc(N)ncc2Oc2cccc(OC)c2)c(O)c1`, the “hERG current change (%, negative = inhibition) at 10uM” value turned out to be 6.7%.

Consider `CCOP(=O)(c1ccccc1)C(O)c1ccc(F)cc1` (centres unmarked), for which the “hERG current change (%, negative = inhibition) at 10uM” value is 17.9%.

Take `Cc1c(C(=O)NCc2cccnc2)oc2ccc(S(=O)(=O)N3CCC4(CC3)OCCO4)cc12`: the “hERG current change (%, negative = inhibition) at 10uM” value is -3.87%.

Turning to `CCC1C(=O)NCCN1C(=O)c1cc(COc2cc(C)ccc2C)on1` (centres unmarked), the “hERG current change (%, negative = inhibition) at 10uM” value is listed as -43.7%.

For `CCOC(=O)CSc1nnc(-c2cccnc2)n1Cc1ccccc1`, the “hERG current change (%, negative = inhibition) at 10uM” value is listed as -14.5%.

On to `CCOc1ccc(-c2[nH]ncc2-c2ccc(Cl)cc2)c(O)c1`, for which the “hERG current change (%, negative = inhibition) at 10uM” value was determined as 0.454%.

Consider `Cc1ccc2[nH]c(=O)c(CC=C(Cl)Cl)c(C)c2c1`, for which the “hERG current change (%, negative = inhibition) at 10uM” value came to 9.84%.

In the case of `Cc1ccc(/C=C(\C#N)C(=O)Nc2cccc(C)n2)cc1`, the “hERG current change (%, negative = inhibition) at 10uM” value came to 12.6%.

In the case of `CCSC1(SCC)N=C(N)C2(C#N)C(c3ccccc3)NC(C)=CC12C#N` (centres unmarked), the “hERG current change (%, negative = inhibition) at 10uM” value worked out at 19.8%.

On to `COCCN(CCOC)S(=O)(=O)c1ccc(/C(O)=C(\C#N)c2nc3ccccc3[nH]2)cc1`, for which the “hERG current change (%, negative = inhibition) at 10uM” value stood at 16%.

For the compound `O=C(CC1CCCCC1)OCn1nnc2ccccc2c1=O`, the “hERG current change (%, negative = inhibition) at 10uM” value is listed as -33.2%.

For the compound `Cc1cc(=O)[nH]c(/N=C(\N)Nc2cccc3ccccc23)n1`, the “hERG current change (%, negative = inhibition) at 10uM” value is 11.5%.

As for `COc1ccc(-c2cc(C(=O)NC(Cc3c[nH]c4ccccc34)C(=O)O)c(C)o2)cc1OC` (centres unmarked), the “hERG current change (%, negative = inhibition) at 10uM” value is 50.7%.

`CCOC(=O)C1CCN(S(=O)(=O)c2ccc(OC)c(C(=O)N3CCCCC3)c2)CC1`: the “hERG current change (%, negative = inhibition) at 10uM” value is 12.5%.

`Cc1cccc(NC(=S)N(CCCN2CCOCC2)C(C)c2cc3ccccc3o2)c1` (centres unmarked): the “hERG current change (%, negative = inhibition) at 10uM” value was -38.8%.

Consider `CCOC(=O)c1sc(NC(=O)COC(=O)CNC(=O)C2CCCCC2)c(C(=O)OCC)c1C`, for which the “hERG current change (%, negative = inhibition) at 10uM” value is 12%.

Take `COCCCN1C(=O)C2C(C(=O)Nc3cc(C)cc(C)c3)C3C=CC2(O3)C1C(=O)NC1CCCCC1` (centres unmarked): the “hERG current change (%, negative = inhibition) at 10uM” value was found to be 1.58%.

Take `C/C(=N\NC(=O)c1ccccc1Cl)c1c(O)n(C2CCCCC2)c(=O)[nH]c1=O`: the “hERG current change (%, negative = inhibition) at 10uM” value is recorded as 15.1%.

As for `O=S(=O)(Nc1nc(CN2CCOCC2)nc2sc3c(c12)CCCC3)c1cc(F)ccc1F`, the “hERG current change (%, negative = inhibition) at 10uM” value is -34.9%.

Consider `Cc1cc(=O)n2nc(-c3ccccc3)sc2c1C#N`, for which the “hERG current change (%, negative = inhibition) at 10uM” value is -2.19%.

Consider `COc1ccc(Cl)cc1NC(=O)CCNC(=O)Cn1ccc2ccccc2c1=O`, for which the “hERG current change (%, negative = inhibition) at 10uM” value stood at 16.9%.

For `COC(=O)CCSCc1cn2cc(Cl)ccc2n1`, the “hERG current change (%, negative = inhibition) at 10uM” value is 17.7%.

Regarding `CCOC(=O)C1(Cc2ccc(OC)cc2)CCN(C(=O)CN2CCCCC2=O)CC1`, the “hERG current change (%, negative = inhibition) at 10uM” value was found to be 4.53%.

For `COc1ccc(CCNC(=O)CC2SC(=Nc3cc(C)cc(C)c3)NC2=O)cc1OC` (centres unmarked), the “hERG current change (%, negative = inhibition) at 10uM” value was determined as 24.2%.

Take `CCc1ccc(/C=N/NC(=O)c2cc(C)on2)s1`: the “hERG current change (%, negative = inhibition) at 10uM” value is on record as -15.5%.

`COc1ccc(C2=NN(C(=O)CCC(=O)O)C(c3ccc(OC)c(OC)c3)C2)cc1` (centres unmarked): the “hERG current change (%, negative = inhibition) at 10uM” value was found to be 5.63%.

On to `O=C(CCC(=O)c1ccc(Oc2ccccc2)cc1)Nc1ccc(C(=O)O)cc1`, for which the “hERG current change (%, negative = inhibition) at 10uM” value came to 21.8%.

In the case of `CCOC(=O)c1cn2nc(N3CCCC3)ccc2n1`, the “hERG current change (%, negative = inhibition) at 10uM” value worked out at 1.32%.

`O=C(Nc1cccc(Cl)c1)c1cc(F)cc2c1OCOC2`: the “hERG current change (%, negative = inhibition) at 10uM” value came to 13.4%.

On to `COc1cccc(Oc2c(C)oc3c(CN4CCCC4)c(O)ccc3c2=O)c1`, for which the “hERG current change (%, negative = inhibition) at 10uM” value is reported as 2.05%.

Consider `Cc1ccc(N2CCN(S(=O)(=O)c3ccc4c(c3)NC(=O)C(C)C(=O)N4)CC2C)cc1` (centres unmarked), for which the “hERG current change (%, negative = inhibition) at 10uM” value worked out at 11.7%.

`COc1cccc(C(c2nnnn2CCc2ccccc2)N2CCN(c3ccccc3)CC2)c1OC` (centres unmarked): the “hERG current change (%, negative = inhibition) at 10uM” value was -1.31%.

For `COc1ccc(/C=N/NC(=O)c2cc(C34CC5CC(CC(C5)C3)C4)[nH]n2)cc1O`, the “hERG current change (%, negative = inhibition) at 10uM” value is given as 2.14%.

Turning to `COc1cccc(NC(=O)c2ccc(OC(F)(F)F)cc2)c1`, the “hERG current change (%, negative = inhibition) at 10uM” value came out at 1.07%.

Consider `CCOc1ccc(C2C=C(c3ccccc3)Nc3nnnn32)cc1` (centres unmarked), for which the “hERG current change (%, negative = inhibition) at 10uM” value worked out at 14.4%.

`Cc1ccc2[nH]cc(CCNC(=O)Nc3ccccc3)c2c1`: the “hERG current change (%, negative = inhibition) at 10uM” value is on record as -16.9%.

With `CS(=O)c1ccccc1COC(=O)Nc1ccc(Cl)cc1` (centres unmarked), the “hERG current change (%, negative = inhibition) at 10uM” value was -11.5%.

`CCCn1nc(C(=O)Nc2ccc3c(c2)OCCO3)c2ccccc2c1=O`: the “hERG current change (%, negative = inhibition) at 10uM” value is -7.37%.

As to `CCOC(=O)c1cc(C)[nH]c1C`, the “hERG current change (%, negative = inhibition) at 10uM” value amounted to 6.1%.

As for `CC(C)CN(C(=O)CSc1nnc(-c2ccco2)o1)c1c(N)n(Cc2ccccc2)c(=O)[nH]c1=O`, the “hERG current change (%, negative = inhibition) at 10uM” value came to 14.4%.

Take `CC1=Nc2ccccc2/C1=C/c1nc(-c2ccc(C)s2)oc1O`: the “hERG current change (%, negative = inhibition) at 10uM” value came out at 16.5%.

On to `CCOc1ccc2nc(Cl)c(CN(C(=O)c3cnccn3)C3CCCC3)cc2c1`, for which the “hERG current change (%, negative = inhibition) at 10uM” value is recorded as -10.5%.

Take `C=CCOC(=O)C1=C(C)NC(=O)NC1c1ccc(N(C)C)cc1` (centres unmarked): the “hERG current change (%, negative = inhibition) at 10uM” value is 3.34%.

As for `Cc1ccccc1OCC(=O)N/N=C/c1ccccn1`, the “hERG current change (%, negative = inhibition) at 10uM” value worked out at 11.3%.

Regarding `COc1cccc2sc(=NC(=O)CS(=O)(=O)c3ccc(Cl)cc3)n(C)c12`, the “hERG current change (%, negative = inhibition) at 10uM” value is -60.8%.

Regarding `NC(=S)NNc1ccnc2cc(Cl)ccc12`, the “hERG current change (%, negative = inhibition) at 10uM” value worked out at 5.52%.

With `Fc1ccccc1CN1CCN(c2ncccn2)CC1`, the “hERG current change (%, negative = inhibition) at 10uM” value came out at 5.66%.

On to `COC(=O)C1CCN(C(=O)NC(C)(C)C)CC1`, for which the “hERG current change (%, negative = inhibition) at 10uM” value turned out to be 11.2%.

Consider `CC(C)C(NC(=O)c1ccc(F)cc1)C(=O)OCC(=O)N1CC(=O)Nc2ccccc21` (centres unmarked), for which the “hERG current change (%, negative = inhibition) at 10uM” value was -14.9%.

`COc1ccc(Nc2nc(NC(C)(C)C)nc(N3CCCC3)n2)c(OC)c1`: the “hERG current change (%, negative = inhibition) at 10uM” value is 14%.
